Residue numbers refer to the chain shown, from its start. Some of the results follow.
T1: RBFOX1 RRM RbFoxmut (Fox-RRM*) (Homo sapiens, UniProt Q9NWB1 109-208, R118D;E147R;N151S;E152T)
T1 sequence: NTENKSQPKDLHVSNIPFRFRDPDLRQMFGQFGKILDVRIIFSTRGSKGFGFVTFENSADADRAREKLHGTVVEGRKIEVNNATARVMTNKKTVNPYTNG

B1: GCGUCUG (DNA:RNA)
RNA: GGGAGACCGGAAUUCAGAUUGUCCGCGUCUGUUAAAUCCCGUCGUAGCCACCA
DNA 1: CAATCTGAATTCCGGTCTCCC
DNA 2: TGGTGGCTACGACGGGATT
B2: UGAUGCU (DNA:RNA)
RNA: B1 RNA with G25U, C26G, G27A, C29G, U30C, G31U
DNA 1: CAATCTGAATTCCGGTCTCCC
DNA 2: TGGTGGCTACGACGGGATT
B3: AUGCCGA (DNA:RNA)
RNA: B1 RNA with G25A, C26U, U28C, U30G, G31A
DNA 1: CAATCTGAATTCCGGTCTCCC
DNA 2: TGGTGGCTACGACGGGATT
B4: ACGCACG (DNA:RNA)
RNA: B1 RNA with G25A, U28C, C29A, U30C
DNA 1: CAATCTGAATTCCGGTCTCCC
DNA 2: TGGTGGCTACGACGGGATT
B5: GACGUGU (DNA:RNA)
RNA: B1 RNA with C26A, G27C, U28G, C29U, U30G, G31U
DNA 1: CAATCTGAATTCCGGTCTCCC
DNA 2: TGGTGGCTACGACGGGATT
B6: ACCGUCU (DNA:RNA)
RNA: B1 RNA with G25A, G27C, U28G, C29U, U30C, G31U
DNA 1: CAATCTGAATTCCGGTCTCCC
DNA 2: TGGTGGCTACGACGGGATT
B7: AGGUGAA (DNA:RNA)
RNA: B1 RNA with G25A, C26G, C29G, U30A, G31A
DNA 1: CAATCTGAATTCCGGTCTCCC
DNA 2: TGGTGGCTACGACGGGATT
B8: CCGUUCG (DNA:RNA)
RNA: B1 RNA with G25C, C29U, U30C
DNA 1: CAATCTGAATTCCGGTCTCCC
DNA 2: TGGTGGCTACGACGGGATT
B9: CUACAUA (DNA:RNA)
RNA: B1 RNA with G25C, C26U, G27A, U28C, C29A, G31A
DNA 1: CAATCTGAATTCCGGTCTCCC
DNA 2: TGGTGGCTACGACGGGATT
B10: CAGAGAA (DNA:RNA)
RNA: B1 RNA with G25C, C26A, U28A, C29G, U30A, G31A
DNA 1: CAATCTGAATTCCGGTCTCCC
DNA 2: TGGTGGCTACGACGGGATT
B11: UUUACAU (DNA:RNA)
RNA: B1 RNA with G25U, C26U, G27U, U28A, U30A, G31U
DNA 1: CAATCTGAATTCCGGTCTCCC
DNA 2: TGGTGGCTACGACGGGATT
B12: GUAGACU (DNA:RNA)
RNA: B1 RNA with C26U, G27A, U28G, C29A, U30C, G31U
DNA 1: CAATCTGAATTCCGGTCTCCC
DNA 2: TGGTGGCTACGACGGGATT
B13: UCUGAAA (DNA:RNA)
RNA: B1 RNA with G25U, G27U, U28G, C29A, U30A, G31A
DNA 1: CAATCTGAATTCCGGTCTCCC
DNA 2: TGGTGGCTACGACGGGATT
B14: UUAAAAG (DNA:RNA)
RNA: B1 RNA with G25U, C26U, G27A, U28A, C29A, U30A
DNA 1: CAATCTGAATTCCGGTCTCCC
DNA 2: TGGTGGCTACGACGGGATT
B15: CAUAACA (DNA:RNA)
RNA: GGGAGACCGGAAUUCAGAUUGUCCCAUAACAUUAAAUCCCGUCGUAGCCACCA
DNA 1: CAATCTGAATTCCGGTCTCCC
DNA 2: TGGTGGCTACGACGGGATT
B16: UAUUCGC (DNA:RNA)
RNA: B15 RNA with C25U, A28U, A29C, C30G, A31C
DNA 1: CAATCTGAATTCCGGTCTCCC
DNA 2: TGGTGGCTACGACGGGATT
B17: UUCUAUA (DNA:RNA)
RNA: B15 RNA with C25U, A26U, U27C, A28U, C30U
DNA 1: CAATCTGAATTCCGGTCTCCC
DNA 2: TGGTGGCTACGACGGGATT
B18: CAUAGGG (DNA:RNA)
RNA: B15 RNA with A29G, C30G, A31G
DNA 1: CAATCTGAATTCCGGTCTCCC
DNA 2: TGGTGGCTACGACGGGATT
B19: UUGACGG (DNA:RNA)
RNA: B1 RNA with G25U, C26U, U28A, U30G
DNA 1: CAATCTGAATTCCGGTCTCCC
DNA 2: TGGTGGCTACGACGGGATT
B20: AACGAUA (DNA:RNA)
RNA: B15 RNA with C25A, U27C, A28G, C30U
DNA 1: CAATCTGAATTCCGGTCTCCC
DNA 2: TGGTGGCTACGACGGGATT
B21: AGCUCAU (DNA:RNA)
RNA: B1 RNA with G25A, C26G, G27C, U30A, G31U
DNA 1: CAATCTGAATTCCGGTCTCCC
DNA 2: TGGTGGCTACGACGGGATT
B22: CCGCAGU (DNA:RNA)
RNA: B15 RNA with A26C, U27G, A28C, C30G, A31U
DNA 1: CAATCTGAATTCCGGTCTCCC
DNA 2: TGGTGGCTACGACGGGATT
B23: UAACCCG (DNA:RNA)
RNA: B15 RNA with C25U, U27A, A28C, A29C, A31G
DNA 1: CAATCTGAATTCCGGTCTCCC
DNA 2: TGGTGGCTACGACGGGATT
B24: GUUUUGG (DNA:RNA)
RNA: B1 RNA with C26U, G27U, C29U, U30G
DNA 1: CAATCTGAATTCCGGTCTCCC
DNA 2: TGGTGGCTACGACGGGATT
B25: GUCUGAG (DNA:RNA)
RNA: B1 RNA with C26U, G27C, C29G, U30A
DNA 1: CAATCTGAATTCCGGTCTCCC
DNA 2: TGGTGGCTACGACGGGATT
B26: UUCCUGU (DNA:RNA)
RNA: GGGAGACCGGAAUUCAGAUUGUCCUUCCUGUUUAAAUCCCGUCGUAGCCACCA
DNA 1: CAATCTGAATTCCGGTCTCCC
DNA 2: TGGTGGCTACGACGGGATT
B27: GACGUAC (DNA:RNA)
RNA: B26 RNA with U25G, U26A, C28G, G30A, U31C
DNA 1: CAATCTGAATTCCGGTCTCCC
DNA 2: TGGTGGCTACGACGGGATT
B28: CCAUUGU (DNA:RNA)
RNA: B26 RNA with U25C, U26C, C27A, C28U
DNA 1: CAATCTGAATTCCGGTCTCCC
DNA 2: TGGTGGCTACGACGGGATT
B29: UGACAGU (DNA:RNA)
RNA: B26 RNA with U26G, C27A, U29A
DNA 1: CAATCTGAATTCCGGTCTCCC
DNA 2: TGGTGGCTACGACGGGATT
B30: GUGGUCC (DNA:RNA)
RNA: B1 RNA with C26U, U28G, C29U, U30C, G31C
DNA 1: CAATCTGAATTCCGGTCTCCC
DNA 2: TGGTGGCTACGACGGGATT
B31: CGGGUCC (DNA:RNA)
RNA: B15 RNA with A26G, U27G, A28G, A29U, A31C
DNA 1: CAATCTGAATTCCGGTCTCCC
DNA 2: TGGTGGCTACGACGGGATT

These binders were tested against T1, RBFOX1 RRM RbFoxmut (Fox-RRM*) (assay: EMSA; HiTS-Eq, 1 nM pool, 10 min; buffer printed only for the single-RNA assays: 10 mM Tris pH 7.5, 150 mM NaCl, 3.4 mM EDTA, 0.001% NP-40, 30 C). Settings: tags: His6 N-terminal (pET28a); label: 5' 32P.
How it was run: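 These values rest on relative association constants, computed from read-count changes of each RNA species versus the control reaction and normalised to the cognate motif. Reads came from free RNA recovered by 8% native PAGE after purified RbFox RRM (wild type or mutant) at increasing concentrations was equilibrated for 10 min in 50 µL with 1 nM of a 5′-radiolabelled pool with 7 randomized nucleotides and DNA-annealed flanks.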
With B1 the binding signal was 0.189 KA relative to UGCAUGU.
In the case of B2, the binding signal is reported as 0.0843 KA relative to UGCAUGU.
In the case of B3, the binding signal is reported as 0.106 KA relative to UGCAUGU.
B4 was tested, and the binding signal was 0.354 KA relative to UGCAUGU.
For B5, the binding signal was 0.15 KA relative to UGCAUGU.
In the case of B6, the binding signal is reported as 0.0777 KA relative to UGCAUGU.
B7 was tested, and the binding signal was 0.12 KA relative to UGCAUGU.
For B8, the binding signal was 0.112 KA relative to UGCAUGU.
In the case of B9, the binding signal is reported as 0.0795 KA relative to UGCAUGU.
For B10, the binding signal was 0.11 KA relative to UGCAUGU.
B11 was tested, and the binding signal was 0.0913 KA relative to UGCAUGU.
With B12 the binding signal was 0.0824 KA relative to UGCAUGU.
For B13, the binding signal was 0.044 KA relative to UGCAUGU.
B14 was tested, and the binding signal was 0.0912 KA relative to UGCAUGU.
B15 was tested, and the binding signal was 0.0932 KA relative to UGCAUGU.
For B16, the binding signal was 0.102 KA relative to UGCAUGU.
B17 was tested, and the binding signal was 0.146 KA relative to UGCAUGU.
For B18, the binding signal was 0.0682 KA relative to UGCAUGU.
In the case of B19, the binding signal is reported as 0.0789 KA relative to UGCAUGU.
In the case of B20, the binding signal is reported as 0.0696 KA relative to UGCAUGU.
B21 was tested, and the binding signal was 0.0951 KA relative to UGCAUGU.
For B22, the binding signal was 0.0791 KA relative to UGCAUGU.
B23 was tested, and the binding signal was 0.0922 KA relative to UGCAUGU.
For B24, the binding signal was 0.102 KA relative to UGCAUGU.
In the case of B25, the binding signal is reported as 0.146 KA relative to UGCAUGU.
In the case of B26, the binding signal is reported as 0.0952 KA relative to UGCAUGU.
In the case of B27, the binding signal is reported as 0.11 KA relative to UGCAUGU.
B28 was tested, and the binding signal was 0.123 KA relative to UGCAUGU.
B29 was tested, and the binding signal was 0.0684 KA relative to UGCAUGU.
B30 was tested, and the binding signal was 0.135 KA relative to UGCAUGU.
For B31, the binding signal was 0.107 KA relative to UGCAUGU.
